# Over roughly 2,900 compounds, “NF-kB SEAP reporter activity, fold change vs agonist alone” has its median near 0.99; the highest 2% begin near 2.6. This is one part of the list.
# What was measured:
# [1] = test system: RAW-Dual; assay: NF-kB SEAP reporter activity, fold change vs agonist alone; cytotoxicity flag (confluency mask): not cytotoxic; higher = enhanced NF-kB activity
# Summary of the method: (§1)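 Supernatant from RAW-Dual macrophages was read after 20 hours for IRF by QuantiLuc luminescence and for NF-κB by QuantiBlue absorbance at 620 nm. The cells (50,000 cells/well in DMEM, 384-well plates, 37 °C, 5% CO2) had received 50 nL of library stock by pin tool and, 1 h later, a PRR agonist. Reporter activity is expressed relative to agonist-alone wells as fold change, and wells were flagged cytotoxic if IncuCyte confluency was under 70% of agonist controls in both mask sets.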
# [2] = test system: RAW-Dual; assay: NF-kB SEAP reporter activity, fold change vs agonist alone; higher = enhanced NF-kB activity; conditions: cytotoxicity flag (confluency mask): not cytotoxic
# Summary of the method: as §1
# [3] = agonist: ODN 1826 (TLR9) 0.5 ug/mL
# [4] = agonist: Pam2CSK4 (TLR2/6) 0.1 ug/mL
# [5] = agonist: Pam3CSK4 (TLR2/1) 0.1 ug/mL
# [6] = library stock concentration (final ~1000-fold dilution): 10 mM, agonist: Imiquimod (TLR7) […]
# [7] = library stock concentration (final ~1000-fold dilution): 10 mM, agonist: MPLA (TLR4) […]
smiles,measurement,setting,value
C=CC(=O)NC1CCOCC1Nc1ncc2cc(-c3c(Cl)c(OC)cc(OC)c3Cl)ccc2n1 (configuration not stated) (library stock concentration (final ~1000-fold dilution): 10 mM),NF-kB SEAP reporter activity,[1]; agonist: LPS (TLR4) 0.1 ug/mL,0.691
same,NF-kB SEAP reporter activity,[1]; [3],0.827
same,NF-kB SEAP reporter activity,[1]; [4],0.34
same,NF-kB SEAP reporter activity,[1]; [5],0.478
C=CC(=O)NC1CCOCC1Nc1ncc2cc(-c3c(Cl)c(OC)cc(OC)c3Cl)ccc2n1 (configuration not stated),NF-kB SEAP reporter activity,[2]; [6],0.68
same,NF-kB SEAP reporter activity,[2]; [7],0.869
Cl.Cn1cc(C(=O)Nc2ccc3c(c2)OCCO3)c2ccccc2c1=O,NF-kB SEAP reporter activity,[2]; [6],1.2
same,NF-kB SEAP reporter activity,[2]; [7],1.41
Cl.Cn1cc(C(=O)Nc2ccc3c(c2)OCCO3)c2ccccc2c1=O (library stock concentration (final ~1000-fold dilution): 10 mM),NF-kB SEAP reporter activity,[1]; agonist: LPS (TLR4) 0.1 ug/mL,2.21
same,NF-kB SEAP reporter activity,[1]; [3],1.48
same,NF-kB SEAP reporter activity,[1]; [4],1.09
same,NF-kB SEAP reporter activity,[1]; [5],1.29
Cn1cc(Nc2nccc(N3CC4CCC(C3)N4C(=O)C3CC3(F)F)n2)cn1 (configuration not stated),NF-kB SEAP reporter activity,[2]; [6],1.19
same,NF-kB SEAP reporter activity,[2]; [7],0.995
Cn1cc(Nc2nccc(N3CC4CCC(C3)N4C(=O)C3CC3(F)F)n2)cn1 (configuration not stated) (library stock concentration (final ~1000-fold dilution): 10 mM),NF-kB SEAP reporter activity,[1]; agonist: LPS (TLR4) 0.1 ug/mL,0.973
same,NF-kB SEAP reporter activity,[1]; [3],1.3
same,NF-kB SEAP reporter activity,[1]; [4],1.69
same,NF-kB SEAP reporter activity,[1]; [5],2.02
Oc1cc2c(cc1O)CN(C(=S)NCCc1ccc(Cl)cc1)CCC2 (library stock concentration (final ~1000-fold dilution): 10 mM),NF-kB SEAP reporter activity,[1]; agonist: LPS (TLR4) 0.1 ug/mL,0.434
same,NF-kB SEAP reporter activity,[1]; [3],0.417
same,NF-kB SEAP reporter activity,[1]; [4],0.246
same,NF-kB SEAP reporter activity,[1]; [5],0.381
Oc1cc2c(cc1O)CN(C(=S)NCCc1ccc(Cl)cc1)CCC2,NF-kB SEAP reporter activity,[2]; [6],1.19
same,NF-kB SEAP reporter activity,[2]; [7],0.993
COc1ccc(NC(=O)c2ccc(C(=N)N(C)C)cc2)c(C(=O)Nc2ccc(Cl)cn2)c1,NF-kB SEAP reporter activity,[2]; [7],1.09
COc1ccc(NC(=O)c2ccc(C(=N)N(C)C)cc2)c(C(=O)Nc2ccc(Cl)cn2)c1 (library stock concentration (final ~1000-fold dilution): 10 mM),NF-kB SEAP reporter activity,[1]; agonist: LPS (TLR4) 0.1 ug/mL,1.02
same,NF-kB SEAP reporter activity,[1]; [3],0.92
same,NF-kB SEAP reporter activity,[1]; [4],0.94
same,NF-kB SEAP reporter activity,[1]; [5],0.875
CCS(=O)(=O)N1CCC(C(C)n2c(C)c(C(=O)NCc3c(OC)cc(C)[nH]c3=O)c3ccccc32)CC1 (configuration not stated),NF-kB SEAP reporter activity,[2]; [6],0.878
same,NF-kB SEAP reporter activity,[2]; [7],0.928
CCS(=O)(=O)N1CCC(C(C)n2c(C)c(C(=O)NCc3c(OC)cc(C)[nH]c3=O)c3ccccc32)CC1 (configuration not stated) (library stock concentration (final ~1000-fold dilution): 10 mM),NF-kB SEAP reporter activity,[1]; agonist: LPS (TLR4) 0.1 ug/mL,0.94
same,NF-kB SEAP reporter activity,[1]; [3],1.02
same,NF-kB SEAP reporter activity,[1]; [4],1.05
same,NF-kB SEAP reporter activity,[1]; [5],0.887
CCOc1ccc(CC2NC(=O)CCSSCC(C(=O)N3CCCC3C(=O)NC(CCCN)C(=O)NCC(N)=O)NC(=O)C(CC(N)=O)NC(=O)C(C(C)O)NC(=O)C(C(C)CC)NC2=O)cc1 (configuration not stated),NF-kB SEAP reporter activity,"[2]; library stock concentration (final ~1000-fold dilution): 10 mM water, agonist: Imiquimod (TLR7) […]",0.981
same,NF-kB SEAP reporter activity,"[2]; library stock concentration (final ~1000-fold dilution): 10 mM water, agonist: MPLA (TLR4) […]",1.06
CCOc1ccc(CC2NC(=O)CCSSCC(C(=O)N3CCCC3C(=O)NC(CCCN)C(=O)NCC(N)=O)NC(=O)C(CC(N)=O)NC(=O)C(C(C)O)NC(=O)C(C(C)CC)NC2=O)cc1 (configuration not stated) (library stock concentration (final ~1000-fold dilution): 10 mM water),NF-kB SEAP reporter activity,[1]; agonist: LPS (TLR4) 0.1 ug/mL,1.22
same,NF-kB SEAP reporter activity,[1]; [3],1.15
same,NF-kB SEAP reporter activity,[1]; [4],1.22
same,NF-kB SEAP reporter activity,[1]; [5],1.02
Cl.c1ccc(CN(CC2=NCCN2)c2ccccc2)cc1,NF-kB SEAP reporter activity,[2]; [6],1.06
same,NF-kB SEAP reporter activity,[2]; [7],1
Cl.c1ccc(CN(CC2=NCCN2)c2ccccc2)cc1 (library stock concentration (final ~1000-fold dilution): 10 mM),NF-kB SEAP reporter activity,[1]; agonist: LPS (TLR4) 0.1 ug/mL,1.02
same,NF-kB SEAP reporter activity,[1]; [3],0.674
same,NF-kB SEAP reporter activity,[1]; [4],0.951
same,NF-kB SEAP reporter activity,[1]; [5],1.02
CC(=O)c1ccc2c(c1)Nc1ccccc1S2,NF-kB SEAP reporter activity,[2]; [7],0.996
CC(=O)c1ccc2c(c1)Nc1ccccc1S2 (library stock concentration (final ~1000-fold dilution): 10 mM),NF-kB SEAP reporter activity,[1]; agonist: LPS (TLR4) 0.1 ug/mL,1.06
same,NF-kB SEAP reporter activity,[1]; [3],1.04
same,NF-kB SEAP reporter activity,[1]; [4],0.867
same,NF-kB SEAP reporter activity,[1]; [5],0.872
CCN(CC)C(=O)/C(C#N)=C/c1cc(O)c(O)c([N+](=O)[O-])c1 (library stock concentration (final ~1000-fold dilution): 10 mM),NF-kB SEAP reporter activity,[1]; agonist: LPS (TLR4) 0.1 ug/mL,1.28
same,NF-kB SEAP reporter activity,[1]; [3],0.98
same,NF-kB SEAP reporter activity,[1]; [4],1.07
same,NF-kB SEAP reporter activity,[1]; [5],1.19
CCN(CC)C(=O)/C(C#N)=C/c1cc(O)c(O)c([N+](=O)[O-])c1,NF-kB SEAP reporter activity,[2]; [6],1.05
same,NF-kB SEAP reporter activity,[2]; [7],0.938
CC(=O)Oc1cc(C(C)C)c(OCCN(C)C)cc1C.Cl,NF-kB SEAP reporter activity,[2]; [6],0.78
same,NF-kB SEAP reporter activity,[2]; [7],1
CC(=O)Oc1cc(C(C)C)c(OCCN(C)C)cc1C.Cl (library stock concentration (final ~1000-fold dilution): 10 mM),NF-kB SEAP reporter activity,[1]; agonist: LPS (TLR4) 0.1 ug/mL,0.923
same,NF-kB SEAP reporter activity,[1]; [3],0.632
same,NF-kB SEAP reporter activity,[1]; [4],0.952
same,NF-kB SEAP reporter activity,[1]; [5],0.718
Cc1cc(F)c(Nc2ncnc3cc(OCc4ccccc4)ccc23)cc1O.Cl (library stock concentration (final ~1000-fold dilution): 10 mM),NF-kB SEAP reporter activity,[1]; agonist: LPS (TLR4) 0.1 ug/mL,0.472
same,NF-kB SEAP reporter activity,[1]; [3],0.598
same,NF-kB SEAP reporter activity,[1]; [4],0.618
same,NF-kB SEAP reporter activity,[1]; [5],0.593
Cc1cc(F)c(Nc2ncnc3cc(OCc4ccccc4)ccc23)cc1O.Cl,NF-kB SEAP reporter activity,[2]; [6],1.07
same,NF-kB SEAP reporter activity,[2]; [7],0.639
O=C(O)C(Cc1c[nH]c2ccccc12)N1C(=O)c2ccccc2C1=O (configuration not stated),NF-kB SEAP reporter activity,[2]; [6],1.14
same,NF-kB SEAP reporter activity,[2]; [7],1.12

# Source: the supplement of paper PMC10037445
